Reference: patent US20220411514A1, “ANTI-GAL3 ANTIBODIES AND METHODS OF USE FOR INSULIN RESISTANCE” (TrueBinding, Inc., priority 2021, published 2022)

Key:
[1] = test system: Human Gal3 peptides; test: Gal3 peptide binding ELISA (Example 8); settings: antibody 5 μg/mL
Experimental: Gal3 peptide binding activity of additional exemplary anti-Gal3 antibodies was assessed with the same peptides as described in FIG. 18 (SEQ ID NOs: 3-26). Human Gal3 peptides (LifeTein, custom order) and human Gal3 proteins (R&D Systems, 8259-GA; TrueBinding, QCB200349) were diluted in PBS (Corning, 21-030-CM) to concentrations of at least 100 μg/mL (peptides) or 1 μg/mL (proteins), and added to the wells of several 96-well ELISA plates (Thermo Fisher, 44-2404-21). After incubating the plates at 4° C. overnight, the plates were washed three times with PBST (PBS with 0.05% Tween 20 [VWR, 0777]). The plates were then blocked for an hour with 2% BSA (EMD Millipore, 126609) in PBST at room temperature with gentle rocking. Thereafter, the 2% BSA in PBST was discarded and Gal3-binding antibodies (reformatted hIgG4 [S228P]) were diluted in 2% BSA in PBST to concentrations of 5 μg/mL and added to the wells. The plates were incubated for an hour at room temperature with gentle rocking and then washed three times with PBST. Afterwards, Peroxidase AffiniPure F(ab′)2 Fragment Goat Anti-Human IgG (H+L) polyclonal antibody (Jackson ImmunoResearch, 109-036-003), was diluted in 2% BSA in PBST (1:4000) and added to the wells. The plates were incubated for 1 hour at room temperature with gentle rocking and then washed three times with PBST. TMB substrate (Thermo Scientific, 34029) was then added to each well. The reaction was stopped with 1M HCl (JT Baker, 5620-02) and read using a plate reader (Molecular Devices) at absorbance of 450 nm.

[2] = target: T1, human Gal3 (Homo sapiens, UniProt P17931); test: Epitope binning, sandwich format, SPR Carterra LSA (Example 8); format: binding
T1 construct: 6xHis (linker-spaced) (C); purchased AcroBio (Acro Biosystems) GA3-H5129
T1 sequence (P17931 whole entry): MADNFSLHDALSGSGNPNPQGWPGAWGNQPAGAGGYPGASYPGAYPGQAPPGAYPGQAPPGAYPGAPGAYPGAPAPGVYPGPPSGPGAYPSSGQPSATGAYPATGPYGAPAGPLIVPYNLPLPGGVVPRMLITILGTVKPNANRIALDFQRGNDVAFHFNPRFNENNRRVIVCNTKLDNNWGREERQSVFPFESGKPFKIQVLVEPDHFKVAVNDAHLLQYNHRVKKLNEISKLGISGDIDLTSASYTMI
Experimental: The epitope binning assay was done in a sandwich format on the high-throughput SPR-based Carterra LSA unit (CarterraBio, Salt Lake City, Utah). First, the purified antibodies were diluted to 10 μg/ml concentration in 10 mM NaOAc (pH 5.0) and then were covalently coupled via amine group to HC200M chip activated by EDC and S-NHS to immobilize antibodies to different positions of a 384-spot array. One hundred thirty-eight binning cycles were run on the array of immobilized antibodies. In each cycle, first, human Gal3 (AcroBio GA3-H5129) was injected over the entire array to bind to different antibodies (primary antibody), followed by one antibody (secondary antibody) selected among the panel of 150 anti-GAL3 antibodies tested. At the end of each cycle, the array was regenerated by 10 mM Glycine (pH 2.0) to remove bound antigen and secondary antibody from the array. The data analysis was done using the Epitope software by CarterraBio.

B1: 849.4B2: anti-Gal3 antibody (antibody, V domains shown)
VH: DGKLQESGPGLVKPSQSLSLTCSVTGYSITSGYYWNWIRQFPGNKLEWMGHISYDGRNNYNPSLKNRISITRDTSKNQFFLKLNSVTTEDTATYYCAGYDFLWYFDVWGTGTTVTVSS
VL: DVGMTQTPLILSVTIGQPASISCKSSQSLLYINGKTYLNWLLQRPGQSPKRLIYLVSKLDSGVPNRFSGSGSGTDFTLKISRVEAEDLGVYYCLQSTHFPQTFGGGTKLEIK
binding to any of the tested Gal3 peptides [1]: not found to bind
binding to hGAL3 when immobilized on HC200M chip [2]: not bind

B2: 846.2B11: anti-Gal3 antibody (antibody)
heavy: QVQLQQSGPELVRPGALVKISCKASGYTFTSYDINWVKQRPGQGLEWIGWIYPGDGSTKYNEKFKGKATLTADKSSSTAYMQLSSLTSENSAVYFCAREAASNAMDYWGQGTSVTVSSASTKGPSVFPLAPCSRSTSESTAALGCLVKDYFPEPVTVSWNSGALTSGVHTFPAVLQSSGLYSLSSVVTVPSSSLGTKTYTCNVDHKPSNTKVDKRV[in this place human IgG4 Fc with S228P (EU numbers)]
light: DIVLTQSPASLGVSLGQRATISCRASKSVSTSGYSYMHWYQQKPGQPPKLLIYLASILESGVPARFSGSGSGTDFTLNIHPVEEEDAAIYYCQHSRELPLTFGAGTKLELKRTVAAPSVFIFPPSDEQLKSGTASVVCLLNNFYPREAKVQWKVDNALQSGNSQESVTEQDSKDSTYSLSSTLTLSKADYEKHKVYACEVTHQGLSSPVTKSFNRGEC
modifications: 846.2B11 heavy chain peptide sequence; 846.2B11 light chain peptide sequence
notes: anti-Gal3 antibody
binding to any of the tested Gal3 peptides [1]: not found to bind

B3: 847.15H11: anti-Gal3 antibody (antibody, V domains shown)
VH: EVQLQQSGAEVVKPGAPVKLSCKASGYTFNNYWLNWVKQRPGRGLEWIGRIDPSDSETHYNQKFKDKATLTVDMSSSTAYIQLSSLTSEDSAVYYCARGDYYYGTRGPMDYWGQGTSVTVSS
VL: DIVLTQSPASLAVSLGQRATISCRASESLDNSGISFMNWFQQRPGQPPKLLIYAASNLESGVPARFSGSGSGTDFSLNIHPMEEDDAAMYFCQHSKEVPWTFGGGTKLEIK
binding to any of the tested Gal3 peptides [1]: not found to bind
